According to the supplement of paper PMC4723716:
± gives the uncertainty stated by the source. The full ranking holds about 9,900 compounds; the median of “viability index relative to DMSO control” is about 1, and the lowest 2% start at about 0.85. This is one part of the list.

tested on: Plasmodium falciparum NF54 stage V gametocytes; experiment: viability index relative to DMSO control (fraction); higher = less gametocyte killing; details: 2.5 µM, library set: Broad Institute DOS, incubation time: 72 h
Procedure: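 Broad DOS informer set and blood-stage-active DOS compounds screened in duplicate at 2.5 µM against P. falciparum NF54 stage V gametocytes with the serum-free one-step SaLSSA (1536-well): 72 h at 37 °C under low oxygen, then saponin lysis and MitoTracker Red CMXRos staining, with high-content imaging. Viability index = viable-object count divided by the plate mean of DMSO wells (0 = killed, about 1 = inactive).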

SMILES	viability index
CCCC(=O)Nc1ccc2c(c1)OC[C@@H](C)NC[C@H](C)[C@@H](OC)CN(C)C2=O	1.04 ± 0.0082
CCCNC(=O)N1[C@H](CO)[C@@H](c2ccccc2-c2ccc(OC)cc2)[C@@H]1C#N	1.15 ± 0.089
CC(=O)N1[C@H](CO)[C@H](c2ccccc2)[C@@H]1CNC(=O)CN1CCOCC1	1.06 ± 0.022
CCC(=O)N1[C@H](CO)[C@H](c2ccc(-c3cccc(OC)c3)cc2)[C@@H]1CNC(C)=O	1.056 ± 0.0058
C(=C\c1ccc([C@H]2[C@H]3CNC[C@@H]2N3CC2CCOCC2)cc1)/c1ccccc1	1.07 ± 0.034
CCCN(C)C[C@@H]1OCCCC[C@H](C)Oc2ccc(NC(=O)CCCN(C)C)cc2C(=O)N([C@@H](C)CO)C[C@@H]1C	1.1 ± 0.14
CO[C@H]1CN(C)C(=O)c2cccc(C#N)c2OCC[C@H]2CC[C@H](OC)[C@@H](CN(C)C(=O)[C@H]1C)O2	1.018 ± 0.0011
C[C@@H]1CN([C@@H](C)CO)C(=O)c2c(c3ccccc3n2C)-c2ccccc2CO[C@@H]1CN(C)C(=O)Nc1ccc2c(c1)OCO2	0.992 ± 0.12
COC(=O)C[C@H]1CC[C@H]2[C@H](COc3ccc(NC(=O)Nc4c(C)noc4C)cc3C(=O)N2C)O1	0.998 ± 0.022
CNC[C@H]1Oc2cc(C3=CCCC3)ccc2S(=O)(=O)N([C@H](C)CO)C[C@@H]1C	1.07 ± 0.079
CCC(=O)N1C[C@@H](C)[C@@H](OC)CN(C)C(=O)c2cc(NC(=O)Nc3ccc(Cl)cc3)ccc2OC[C@@H]1C	1.11 ± 0.075
CCCNC(=O)N1[C@H](CO)[C@@H](c2ccccc2-c2cccc(C)c2)[C@@H]1C#N	1.14 ± 0.11
CC(C)CC#Cc1ccc([C@H]2[C@H]3CN(S(=O)(=O)c4cccc(F)c4)CC(=O)N3[C@H]2CO)cc1	0.975 ± 0.023
N#C[C@H]1[C@@H](c2ccccc2-c2cccc(F)c2)[C@@H](CO)N1C(=O)NC1CCCCC1	0.99 ± 0.088
CC(C)CC#Cc1ccc([C@@H]2[C@H]3CN(C(=O)c4cccc(F)c4)CC(=O)N3[C@H]2CO)cc1	1.12 ± 0.082
N#Cc1ccc(-c2cccc(-c3nc(C(=O)O)cc4c3[C@@H](CCO)N(CC3CCOCC3)C4)c2)cc1	0.983 ± 0.058
C[C@@H]1CC(=O)NCC/C=C\C[C@H](c2ccc3c(c2)OCO3)NC1=O	1.059 ± 0.0056
CC(C)(C)[S@](=O)N1Cc2cc(C(=O)NCc3ccccc3F)nc(-c3cccc(-c4cncnc4)c3)c2[C@@H]1CCO	0.89 ± 0.056
OC[C@H]1[C@@H](c2ccc(C3=CCCC3)cc2)[C@@H]2CN(Cc3ccncc3)CCCCN12	0.845 ± 0.14
COc1ccc2c3c([C@H](CO)N(C)C[C@]33CN(C3)S(=O)(=O)c3cccc(C)c3)n(C)c2c1	0.982 ± 0.054
OC[C@H]1[C@@H]2c3ccccc3NC[C@@H]2N1Cc1ccccc1Cl	0.963 ± 0.032
CO[C@H]1CN(C)C(=O)c2cc(NS(C)(=O)=O)ccc2OC[C@@H](C)N(C(=O)C2CCOCC2)C[C@@H]1C	1.05 ± 0.027
O=C(Cc1cccnc1)N1CC(=O)N2[C@@H](CO)[C@H](c3ccc(C#CC4CCCCC4)cc3)[C@@H]2C1	1.06 ± 0.04
CN1CCN(C(=O)C[C@@H]2CC[C@@H]3[C@H](COc4ccc(NC(=O)C5CCOCC5)cc4C(=O)N3C)O2)CC1	1.03 ± 0.059

SMILES	viability index
CCNC(=O)[C@@H]1[C@@H](CO)[C@@H]2Cn3c(ccc(-c4cncnc4)c3=O)[C@@H]2N1C(=O)NC1CCCC1	1.04 ± 0.021
O=C(C[C@H]1C=C[C@H](NC(=O)CCN2CCCCC2)[C@@H](CO)O1)Nc1nccs1	1.04 ± 0.13
C/C=C/c1cccc(-c2nc(C(=O)N3CCCCC3)cc3c2[C@@H](CCO)N(C(=O)NC(C)C)C3)c1	1.023 ± 0.0074
C[C@H]1CN([C@@H](C)CO)C(=O)c2cccc(NS(C)(=O)=O)c2O[C@H]1CN(C)Cc1ccc(-c2ccccc2)cc1	1.033 ± 0.0035
C[C@@H]1CN([C@H](C)CO)C(=O)c2ccccc2-c2ccccc2CO[C@@H]1CN(C)C(=O)Nc1cccc(Cl)c1Cl	0.894 ± 0.05
COc1cccc(-c2ccc3n(c2=O)C[C@H]2N[C@@H]3[C@@H](C(=O)N3CCCCC3)[C@@H]2CO)c1	1.01 ± 0.054
O=C(C[C@H]1CC[C@H]2[C@@H](COC[C@H](O)CN2Cc2cccc(Cl)c2)O1)NCc1cccc(F)c1	0.969 ± 0.015
CO[C@@H]1CN(C)C(=O)c2cc(NC(=O)C3CC3)ccc2OC[C@@H](C)N(Cc2cc(F)ccc2F)C[C@@H]1C	0.982 ± 0.078
CCCN1C[C@@H](C)[C@H](OC)CN(C)C(=O)c2cc(NC(=O)C3CCC3)ccc2OC[C@@H]1C	1.04 ± 0.044
O=C(N[C@H]1C=C[C@H](CC(=O)N2CCN(c3ccccc3)CC2)O[C@@H]1CO)c1ccccc1	1.09 ± 0.064
C[C@H](CO)N1C[C@H](C)[C@@H](CN(C)Cc2ccc(-c3ccccc3)cc2)Oc2c(NS(C)(=O)=O)cccc2C1=O	1.02 ± 0.03
C[C@H](CO)N1C[C@H](C)[C@@H](CN(C)S(=O)(=O)c2ccc(F)cc2)Oc2ccc(NS(=O)(=O)c3cn(C)cn3)cc2C1=O	0.941 ± 0.24
COc1ccc2c3c([nH]c2c1)[C@@H](CO)N(C[C@]31CN(Cc2ccccc2)C1)C(=O)c1cccnc1	0.941 ± 0.11
O=C([C@H]1[C@H](CO)[C@H]2Cn3c(ccc(-c4ccc(F)cc4)c3=O)[C@H]2N1Cc1cocn1)N1CCCCC1	1.0512 ± 0.00091
C[C@H](CO)N1C[C@H](C)[C@H](CN(C)Cc2ccc(-c3ccccc3)cc2)Oc2ccc(N(C)C)cc2CC1=O	0.947 ± 0.086
CN1C[C@H]2[C@@H](c3ccccc31)[C@H](CO)N2C(=O)C1CCOCC1	1 ± 0.034
COc1cccc(S(=O)(=O)Nc2ccc3c(c2)[C@H]2C[C@@H](CC(=O)NC4CCCCC4)O[C@@H](CO)[C@H]2O3)c1	1.09 ± 0.041
Cc1noc(C)c1S(=O)(=O)Nc1ccc2c(c1)CC(=O)N([C@H](C)CO)C[C@@H](C)[C@H](CN(C)Cc1ccc(Oc3ccccc3)cc1)O2	0.948 ± 0.067
C[C@H](CO)N1C[C@H](C)[C@H](CN(C)Cc2cccc(C(F)(F)F)c2)OCc2ccccc2-c2c(n(C)c3ccccc23)C1=O	0.972 ± 0.029
COc1ccc2c3c([nH]c2c1)[C@H](CO)N(C[C@]31CN(C1)C(=O)C1CCC1)C(=O)c1ccccn1	1.04 ± 0.053
CO[C@@H]1CN(C)C(=O)c2cc(NS(C)(=O)=O)ccc2OC[C@H](C)N(Cc2cncnc2)C[C@H]1C	1.03 ± 0.033
O=C(NCC1CCCCC1)[C@@H]1[C@@H](CO)[C@@H]2Cn3c(cccc3=O)[C@H]1N2C(=O)c1ccncc1	1.05 ± 0.053
C[C@H]1CN([C@@H](C)CO)C(=O)c2ccccc2-c2ccccc2CO[C@@H]1CN(C)S(=O)(=O)c1ccc([N+](=O)[O-])cc1	1.0249 ± 1.2e-05
Cc1ccc(S(=O)(=O)N(C)C[C@H]2Oc3cc(C#CC4CCCC4)ccc3S(=O)(=O)N([C@H](C)CO)C[C@H]2C)cc1	0.8771 ± 0.0037

SMILES	viability index
O=C(Nc1ccc(F)cc1)N1CC(=O)N2[C@H](CO)[C@H](c3ccc(C#Cc4cccnc4)cc3)[C@H]2C1	1.1 ± 0.086
C[C@@H](NC(=O)C[C@@H]1CC[C@H]2[C@H](COc3ccc(NC(=O)C4CCOCC4)cc3C(=O)N2C)O1)c1ccccc1	1.13 ± 0.079
O=C(Cc1ccccn1)N1CC(=O)N2[C@H](CO)[C@@H](c3ccc(C#CCC4CCCC4)cc3)[C@H]2C1	1.05 ± 0.033
O=C(C[C@@H]1CC[C@@H]2[C@H](COC[C@@H](O)CN2CCC(F)(F)F)O1)NCC1CC1	1.06 ± 0.015
O=C(NC1CCCC1)N1CCCCN2[C@H](C1)[C@@H](c1ccc(-c3cccnc3)cc1)[C@@H]2CO	1.08 ± 0.033
COc1ccc2c3c([C@H](CO)N(Cc4cccnc4)C[C@]33CCN(CC3)C(=O)NC(C)C)n(C)c2c1	1.01 ± 0.021
O=C(C[C@H]1CC[C@@H]2[C@H](COC[C@@H](O)CN2C(=O)c2ccccc2F)O1)NCc1ccc(Cl)c(Cl)c1	1.099 ± 0.0019
CN1C[C@@H]2[C@H](c3ccccc31)[C@H](CO)N2C(=O)C1CCOCC1	0.9689 ± 0.0088
COc1ccc(C[C@@H]2CCc3cnnn3COCCNC2=O)cc1	1.09 ± 0.025
CCCC#Cc1ccc([C@H]2[C@@H](CO)N3C(=O)CN(C(=O)Nc4cccc(F)c4)C[C@@H]23)cc1	1.02 ± 0.082
COc1cccc(S(=O)(=O)Nc2ccc3c(c2)[C@H]2C[C@H](CC(=O)NC4CCCCC4)O[C@@H](CO)[C@H]2O3)c1	1.12 ± 0.025
O=C(Nc1ccc(C(F)(F)F)cc1)N[C@H]1C=C[C@H](CC(=O)N2CCCCC2)O[C@H]1CO	1.07 ± 0.073
COCC(=O)N(C[C@@H]1[C@@H](c2ccccc2)[C@H](CO)N1C(=O)NC(C)C)C(C)C	1.03 ± 0.089
C[C@H]1C/C=C/C[C@H](c2ccc3c(c2)OCO3)NC(=O)[C@H](C)N(C)C(=O)c2ccccc2O1.C[C@H]1C/C=C\C[C@H](c2ccc3c(c2)OCO3)NC(=O)[C@H](C)N(C)C(=O)c2ccccc2O1	1.06 ± 0.12
O=C(C[C@@H]1C=C[C@@H](NC(=O)c2ccncc2)[C@@H](CO)O1)NCC1CC1	1.06 ± 0.26
CO[C@H](CN(C)Cc1ccc2c(c1)OCO2)[C@H](C)CN(C(=O)c1ccccc1)[C@H](C)CO	0.994 ± 0.082
N#Cc1ccc(-c2ccc([C@@H]3[C@H]4CNC[C@@H]3N4C(=O)NC3CCCCC3)cc2)cc1	1.041 ± 0.0082
COc1ccc2c3c([C@H](CO)N(Cc4ccncc4)C[C@]33CN(C3)C(=O)C3CCCCC3)n(C)c2c1	1.03 ± 0.079
C[C@@H]1CN([C@@H](C)CO)C(=O)CCCn2cc(nn2)CO[C@H]1CN(C)C(=O)NC1CCCCC1	1.104 ± 0.004
COC(=O)C[C@@H]1CC[C@@H]2[C@@H](COc3ccc(NC(=O)Nc4cccc(C#N)c4)cc3C(=O)N2C)O1	1.13 ± 0.075
CCS(=O)(=O)Nc1ccc2c(c1)C(=O)N(C)C[C@H](OC)[C@@H](C)CN(C(=O)c1ccc3c(c1)OCO3)[C@H](C)CO2	1.08 ± 0.051
COc1ccc2c3c([nH]c2c1)[C@@H](CO)N(C)C[C@]31CCN(CC1)S(=O)(=O)c1ccc(C)cc1	0.944 ± 0.059
COc1ccccc1NC(=O)N1CC(=O)N2[C@H](CO)[C@@H](c3ccc(-c4cccc(C)c4)cc3)[C@@H]2C1	1.1 ± 0.025
